Experimental data published in ChEMBL document CHEMBL4346670, “Discovery of Novel Janus Kinase (JAK) and Histone Deacetylase (HDAC) Dual Inhibitors for the Treatment of Hematological Malignancies” (J Med Chem, 2019).
Activity calls are given as the source filed them. The calls are words filed in the database; no cut-off is given here.

Biological target: Histone deacetylase 2 (Homo sapiens, UniProt Q92769)
Details: A549, at 80 to 400 nM

Chain of UniProt Q92769 (Q92769 whole entry): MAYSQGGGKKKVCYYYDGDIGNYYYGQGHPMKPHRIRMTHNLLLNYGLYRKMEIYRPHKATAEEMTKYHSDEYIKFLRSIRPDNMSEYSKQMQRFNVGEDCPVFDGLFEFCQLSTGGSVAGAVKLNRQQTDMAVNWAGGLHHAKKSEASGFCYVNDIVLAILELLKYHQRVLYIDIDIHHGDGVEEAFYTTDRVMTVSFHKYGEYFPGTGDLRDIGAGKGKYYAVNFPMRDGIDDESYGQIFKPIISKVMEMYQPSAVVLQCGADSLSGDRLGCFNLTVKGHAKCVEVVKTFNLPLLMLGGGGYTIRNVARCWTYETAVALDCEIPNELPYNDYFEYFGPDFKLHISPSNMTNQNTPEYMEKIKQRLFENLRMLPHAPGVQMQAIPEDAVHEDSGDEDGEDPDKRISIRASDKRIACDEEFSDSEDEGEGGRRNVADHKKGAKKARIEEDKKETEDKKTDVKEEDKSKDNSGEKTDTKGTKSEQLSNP

- inhibition: Active
SMILES: O=C(CCCCCCn1cc(Nc2ncc(Cl)c(Nc3cccc(Cl)c3)n2)cn1)NO
